# This is one part of the list.
# Assays:
# Assay in all cases: glycan array binding signal (z-score within array); higher = stronger binding
# Conditions in all cases: glycan notation: IUPAC condensed, linker removed
# Man(a1-2)Man(a1-3)Man = biological target: Man(a1-2)Man(a1-3)Man
# How it was run: (§1)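 Glycan array binding is given as a within-array Z-score, which can be read as non-binding when negative. The arrays, 3228 of them, came from the Consortium for Functional Glycomics database and were retained only where the protein sequence was available. Z-scores were averaged across arrays of the same protein sequence at different concentrations or buffers and across linkers.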
# [1] = biological target: Man(a1-2)Man(a1-3)[Man(a1-2)Man(a1-6)[Man(a1-3)]Man(a1-6)]Man(b1-4)GlcNAc(b1-4)GlcNAc
# How it was run: as §1
# [2] = biological target: Man(a1-2)Man(a1-3)[Man(a1-2)Man(a1-6)]Man
# How it was run: as §1
# [3] = biological target: Man(a1-2)Man(a1-3)[Man(a1-2)Man(a1-6)]Man(a1-6)[Man(a1-2)Man(a1-2)Man(a1-3)]Man
# How it was run: as §1
# [4] = biological target: Man(a1-2)Man(a1-3)[Man(a1-2)Man(a1-6)]Man(a1-6)[Man(a1-2)Man(a1-2)Man(a1-3)]Man(b1-4)GlcNAc(b1-4)GlcNAc
# How it was run: as §1
# [5] = biological target: Man(a1-2)Man(a1-3)[Man(a1-3)[Man(a1-6)]Man(a1-6)]Man(b1-4)GlcNAc(b1-4)GlcNAc
# How it was run: as §1
# [6] = biological target: Man(a1-2)Man(a1-3)[Man(a1-6)]Man(a1-6)[Man(a1-2)Man(a1-3)]Man(b1-4)GlcNAc(b1-4)GlcNAc
# How it was run: as §1
# [7] = biological target: Man(a1-2)Man(a1-6)[Man(a1-3)]Man(a1-6)[Man(a1-2)Man(a1-2)Man(a1-3)]Man
# How it was run: as §1
# [8] = biological target: Man(a1-2)Man(a1-6)[Man(a1-3)]Man(a1-6)[Man(a1-2)Man(a1-2)Man(a1-3)]Man(b1-4)GlcNAc(b1-4)GlcNAc
# How it was run: as §1
# Man(a1-3)Man = biological target: Man(a1-3)Man
# How it was run: as §1
# [9] = biological target: Man(a1-3)Man(a1-6)[Man(a1-3)]Man(b1-4)GlcNAc(b1-4)GlcNAc
# How it was run: as §1
# Man(a1-3)Man(b1-4)GlcNAc = biological target: Man(a1-3)Man(b1-4)GlcNAc
# How it was run: as §1
# Man(a1-3)[Man(a1-6)]Man = biological target: Man(a1-3)[Man(a1-6)]Man
# How it was run: as §1
# [10] = biological target: Man(a1-3)[Man(a1-6)]Man(a1-6)Man(b1-4)GlcNAc(b1-4)GlcNAc
# How it was run: as §1
# [11] = biological target: Man(a1-3)[Man(a1-6)]Man(a1-6)[Man(a1-2)Man(a1-3)]Man(b1-4)GlcNAc(b1-4)GlcNAc
# How it was run: as §1
# [12] = biological target: Man(a1-3)[Man(a1-6)]Man(a1-6)[Man(a1-3)]Man
# How it was run: as §1
# [13] = biological target: Man(a1-3)[Man(a1-6)]Man(a1-6)[Man(a1-3)]Man(b1-4)GlcNAc(b1-4)GlcNAc
# How it was run: as §1
# [14] = biological target: Man(a1-3)[Man(a1-6)]Man(b1-4)GlcNAc(b1-4)GlcNAc
# How it was run: as §1
# [15] = biological target: Man(a1-3)[Man(a1-6)]Man(b1-4)GlcNAc(b1-4)[Fuc(a1-6)]GlcNAc
# How it was run: as §1
# Man(a1-6)Man = biological target: Man(a1-6)Man
# How it was run: as §1
# [16] = biological target: Man(a1-6)Man(b1-4)GlcNAc(b1-4)GlcNAc
# How it was run: as §1
# Man(b1-4)GlcNAc = biological target: Man(b1-4)GlcNAc
# How it was run: as §1
# [17] = biological target: Man(b1-4)Man(b1-4)Man(b1-4)Man
# How it was run: as §1
# [18] = biological target: Man(b1-4)Man(b1-4)Man(b1-4)Man(b1-4)Man
# How it was run: as §1
# [19] = biological target: Man(b1-4)Man(b1-4)Man(b1-4)Man(b1-4)Man(b1-4)Man
# How it was run: as §1
# [20] = biological target: Man6P(a1-3)Man(a1-3)Man(a1-3)Man(a1-2)Man
# How it was run: as §1
# MurNAc(b1-4)GlcNAc = biological target: MurNAc(b1-4)GlcNAc
# How it was run: as §1
# Neu(a2-3)Gal(b1-4)Glc = biological target: Neu(a2-3)Gal(b1-4)Glc
# How it was run: as §1
# [21] = biological target: Neu(a2-3)Gal(b1-4)GlcNAc(b1-3)Gal(b1-4)[Fuc(a1-3)]GlcNAc(b1-3)Gal(b1-4)Glc
# How it was run: as §1
# [22] = biological target: Neu(a2-3)Gal(b1-4)GlcNAc6S(b1-3)Gal(b1-4)Glc
# How it was run: as §1
# [23] = biological target: Neu(a2-3)Gal(b1-4)[Fuc(a1-3)]GlcNAc(b1-3)Gal(b1-4)Glc
# How it was run: as §1
# [24] = biological target: Neu(a2-3)Gal(b1-4)[Fuc(a1-3)]GlcNAc6S(b1-3)Gal(b1-4)Glc
# How it was run: as §1
# [25] = biological target: Neu(a2-3)Gal6S(b1-4)[Fuc(a1-3)]GlcN(b1-3)Gal(b1-4)Glc
# How it was run: as §1
# Neu(a2-6)Gal(b1-4)Glc = biological target: Neu(a2-6)Gal(b1-4)Glc
# How it was run: as §1
# [26] = biological target: Neu4Ac5Ac(a2-3)Gal(b1-4)Glc
# How it was run: as §1
# [27] = biological target: Neu4Me5Ac(a2-3)Gal(b1-4)Glc
# How it was run: as §1
# Neu5Ac(a2-2)Glc = biological target: Neu5Ac(a2-2)Glc
# How it was run: as §1
# [28] = biological target: Neu5Ac(a2-3)4dGal(b1-4)[Fuc(a1-3)]GlcNAc(b1-3)Gal
# How it was run: as §1
binder,measurement,setting,value
"PNA (Arachis hypogaea), P02872 (protein) MKPFCVFLTFFLLLAASSKKVDSAETVSFNFNSFSEGNPAINFQGDVTVLSNGNIQLTNLNKVNSVGRVLYAMPVRIWSSATGNVASFLTSFSFEMKDIKDYDPADGIIFFIAPEDTQIPAGSIGGGTLGVSDTKGAGHFVGVEFDTYSNSEYNDPPTDHVGIDVNSVDSVKTVPWNSVSGAVVKVTVIYDSSTKTLSVAVTNDNGDITTIAQVVDLKAKLPERVKFGFSASGSLGGRQIHLIRSWSFTSTLITTTRRSIDNNEKKIMNMASA",glycan array binding signal (z-score),Man(a1-2)Man(a1-3)Man,-0.146
same,glycan array binding signal (z-score),[1],-0.195
same,glycan array binding signal (z-score),[2],-0.126
same,glycan array binding signal (z-score),[3],-0.204
same,glycan array binding signal (z-score),[4],-0.089
same,glycan array binding signal (z-score),[5],-0.195
same,glycan array binding signal (z-score),[6],-0.168
same,glycan array binding signal (z-score),[7],-0.119
same,glycan array binding signal (z-score),[8],-0.178
same,glycan array binding signal (z-score),Man(a1-3)Man,-0.051
same,glycan array binding signal (z-score),[9],-0.195
same,glycan array binding signal (z-score),Man(a1-3)Man(b1-4)GlcNAc,-0.195
same,glycan array binding signal (z-score),Man(a1-3)[Man(a1-6)]Man,-0.164
same,glycan array binding signal (z-score),[10],-0.195
same,glycan array binding signal (z-score),[11],0.296
same,glycan array binding signal (z-score),[12],-0.129
same,glycan array binding signal (z-score),[13],-0.186
same,glycan array binding signal (z-score),[14],-0.16
same,glycan array binding signal (z-score),[15],-0.194
same,glycan array binding signal (z-score),Man(a1-6)Man,-0.004
same,glycan array binding signal (z-score),[16],-0.195
same,glycan array binding signal (z-score),Man(b1-4)GlcNAc,-0.219
same,glycan array binding signal (z-score),[17],-0.195
same,glycan array binding signal (z-score),[18],-0.144
same,glycan array binding signal (z-score),[19],-0.035
same,glycan array binding signal (z-score),[20],-0.195
same,glycan array binding signal (z-score),MurNAc(b1-4)GlcNAc,-0.183
same,glycan array binding signal (z-score),Neu(a2-3)Gal(b1-4)Glc,-0.195
same,glycan array binding signal (z-score),[21],-0.195
same,glycan array binding signal (z-score),[22],-0.195
same,glycan array binding signal (z-score),[23],-0.195
same,glycan array binding signal (z-score),[24],-0.195
same,glycan array binding signal (z-score),[25],-0.195
same,glycan array binding signal (z-score),Neu(a2-6)Gal(b1-4)Glc,-0.195
same,glycan array binding signal (z-score),[26],-0.195
same,glycan array binding signal (z-score),[27],-0.195
same,glycan array binding signal (z-score),Neu5Ac(a2-2)Glc,-0.195
same,glycan array binding signal (z-score),[28],-0.195

# Reference: the supplement of paper PMC8728848
